Experimental data taken from PubChem BioAssay AID504706 (National Center for Advancing Translational Sciences (NCATS), 2011).
Out of some 320,000 compounds screened, about 200 (0.062%) were called active. The shares of active, inactive and inconclusive entries below differ from those in the screen. Calls follow the shape of the dose curve; as a rule, active = well fitted activation curve with a large enough effect; inconclusive = small, poorly fitted or top-dose-only effect; inactive = no such curve, though single readings can be large or run the other way. No potency is given beside an inconclusive call; the fits are too rough.

assay: qHTS assay for re-activators of p53 using a Luc reporter; conditions: H1299 p53-A138V BP100-luciferase reporter, luminescence, 24 h; series mostly up to 92.2 µM; also: nearly all actives have a fitted effect of over 45% in size
Procedure, shortened: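 p53-null H1299 cells stably carrying temperature-sensitive p53-A138V and a BP100-luciferase reporter were pinned with compounds (4-point, 1:5 series) and held 24 hrs at 37 deg C. Luminescence was read 10 min after detection reagent.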
Potency is read from the fitted curve at half-maximal effect; tags tell the direction and shape of the fitted curve.

SMILES	Potency
CC(C)[C@H](NC(=O)c1ccccc1Cl)C(=O)NC1CCCCCC1	inconclusive [activator, single point]
CC(=O)Nc1ccc(NC(=O)CSc2nncn2C)cc1	inconclusive [activator, single point]
CN(CC(=O)Nc1cccc(F)c1)C(=O)CCNC(=O)c1ccc(Br)cc1	inconclusive [activator, single point]
CCOc1ccc(NC(=O)n2ncc3c(C)cccc32)cc1	inconclusive [activator, full curve, poor fit]
Oc1c(CN2CCN(c3ccccn3)CC2)cc(Cl)c2cccnc12	inactive
O=C(Nc1ccc(-c2noc(-c3ccccc3F)n2)cc1)c1cccs1	inconclusive [activator, partial curve, poor fit]
CCOc1ccc(N=Cc2c(C)[nH]n(-c3nc4ccccc4[nH]3)c2=O)cc1	inconclusive [activator, single point]
Oc1ccccc1OCc1nc2ccccc2s1	inconclusive [activator, partial curve, poor fit]
Cc1c(C(=O)NN)[nH]c2ccc([N+](=O)[O-])cc12	inactive
COc1cccc(C(=O)N/N=C/c2cn[nH]c2-c2ccc(OC)cc2OC)c1	inactive
Cc1cccc(NC(=S)NC(=O)CCc2ccccc2)c1	inconclusive [activator, partial curve, poor fit]
COc1ccc(C(CNC(=O)Nc2cccc(C)c2)N2CCN(C)CC2)cc1 (centres undefined)	inactive
Cc1cccc(OCC(=O)NCCCNC(=O)c2cccnc2)c1	inactive
N=c1c(C(=O)NCCN2CCOCC2)cc2c(=O)n3ccccc3nc2n1CCCN1CCOCC1	inactive
CC(=O)c1cc(Cl)ccc1OCc1cccc(S(=O)(=O)N2CCOCC2)c1	inactive
Nc1ccc(C(=O)OCC(=O)N2CCOCC2)cc1[N+](=O)[O-]	inconclusive [activator, partial curve, poor fit]
COc1ccc(/C=C/C(=O)Nc2nonc2NC(C)=O)cc1	inconclusive [activator, full curve, poor fit]
Cc1ccc(OCC(=O)Nc2ccc(Cl)cc2)c([N+](=O)[O-])n1	inconclusive [activator, full curve, poor fit]
O=C(Nc1ccc(Br)cc1)c1ccco1	inconclusive [activator, partial curve, poor fit]
O=C(CNC(=O)c1cccs1)c1ccc([N+](=O)[O-])cc1	inconclusive [activator, single point]
Cn1nc(C(=O)OCC(=O)Nc2cc(Cl)ccc2C#N)c2ccccc2c1=O	inconclusive [activator, single point]
CCN(CC)S(=O)(=O)c1ccc(NC(=O)c2cnccn2)cc1	inconclusive [activator, single point]
COc1ccc2oc(-c3ccc(C)c(NC(=O)CSc4ccc(Cl)cc4)c3)nc2c1	inconclusive [activator, partial curve, poor fit]

SMILES	Potency
CCN(CC)S(=O)(=O)c1ccc(NC(=O)c2cccc3c2C(=O)N(CCOC)C3)cc1	inconclusive [activator, partial curve, poor fit]
COc1ccc(CC(=O)Nc2cc(C)on2)cc1	inconclusive [activator, single point]
CCCCOC(=O)/C(=C\c1ccc([N+](=O)[O-])o1)NC(=O)c1ccccc1	inconclusive [activator, single point]
Clc1ccc(-c2n[nH]c3c2CCC3)cc1Cl	inconclusive [activator, single point]
Cc1oc(C(=O)O)cc1COc1ccc2c3c(c(=O)oc2c1C)CCCC3	inactive
COc1cccc(Nc2nc(-c3ccc4c(c3)OCCO4)cs2)c1	inconclusive [activator, partial curve, poor fit]
Cc1nnc2c3ccccc3c(-c3cccs3)nn12	inactive
CCCCOC(=O)c1sc2nc(C)cc(C)c2c1N	inactive
Cc1cnc(C(=O)Nc2ccc(N3CCCCC3)cc2)cn1	inactive
CCC1(CC)N=C(c2ccccc2)C(=S)N1	inactive
CC(=O)OC[C@H]1O[C@H](C/C=N/O[C@@H](C)c2cn([C@H](CO)Cc3ccccc3)nn2)C=C[C@@H]1OC(C)=O	inactive
O=C(Nc1cccc(Cl)c1N1CCOCC1)c1cc([N+](=O)[O-])ccc1N1CCOCC1	inactive
Oc1[nH]c2ccccc2c1C=Nc1ccc2c(c1)OCO2	inconclusive [activator, full curve, poor fit]
CC(C)c1ccc(NC(=O)C2=CC=CN3CCS(=O)(=O)N=C23)cc1	inactive
O=C(CSc1nnc(CNC(=O)c2ccco2)o1)Nc1nc2ccccc2s1	inconclusive [activator, single point]
Cn1ncc(Cl)c1C(=O)Nc1ccc(Cl)cn1	inconclusive [activator, partial curve, poor fit]
Cc1cccc2c(N=Nc3ccccc3)c(O)[nH]c12	inconclusive [activator, partial curve, poor fit]
CSc1ccc(C2N=C(c3ccccc3)NO2)cc1 (centres undefined)	inconclusive [activator, partial curve, poor fit]
O=C(NCCc1ccccc1F)[C@@H]1CSC2c3ccccc3C(=O)N21 (some centres undefined)	inconclusive [activator, single point]
Cc1ccc2nc(SCC(=O)NC3CC3)[nH]c2c1	inconclusive [activator, single point]
COc1ccc(Nc2nc(CC(C)=O)ns2)cc1	inconclusive [activator, partial curve, poor fit]
COc1ccc(S(=O)(=O)N2CCC(C(=O)NCCN3CCOCC3)CC2)cc1	inactive
CCCOc1ccc(NC(=O)C2CC(=O)N/C(=N/N=C(C)/C=C/c3ccc(N(C)C)cc3)S2)cc1 (centres undefined)	inconclusive [activator, partial curve, poor fit]

SMILES	Potency
Clc1ccccc1N=C1NN=C(c2cccs2)CS1	inconclusive [activator, partial curve, poor fit]
O=C(COC(=O)c1ccc[nH]c1=O)NCC12CC3CC(CC(C3)C1)C2	inconclusive [activator, full curve, poor fit]
CC(=O)Nc1ccc(C(=O)/C=C/c2ccco2)cc1	inconclusive [activator, full curve, poor fit]
C=C(C)c1cccc(C(C)(C)NC(=O)Nc2cc(C)ccn2)c1	inconclusive [activator, partial curve, poor fit]
Cc1ccc(-c2nnc(SCC(=O)NC3CC3)o2)cc1	inconclusive [activator, partial curve, poor fit]
COc1cccc(NC(=S)NN2C(C)CCCC2C)c1 (centres undefined)	inactive
CC(=O)c1ccc(S(=O)(=O)N(Cc2cc3cc4c(cc3[nH]c2=O)OCCO4)CC2CCCO2)cc1 (centres undefined)	inconclusive [activator, single point]
C=CCn1c(-c2ccccc2)c[nH]c1=S	inconclusive [activator, partial curve, poor fit]
Cc1nc(NC(=O)CSc2nnnn2C)sc1C	inconclusive [activator, full curve, poor fit]
O=C(Oc1ccc(-c2cnc3ccccc3n2)cc1)c1ccco1	inconclusive [activator, partial curve, poor fit]
C=CCNC(=O)CSc1nnc(-c2cccs2)o1	inconclusive [activator, single point]
CCOC(=O)c1c(NC(=O)c2c(-c3ccccc3)noc2C)sc(C)c1-c1ccccc1	inactive
O=C(/C=C/c1ccco1)c1ccc(O)cc1	inconclusive [activator, partial curve, poor fit]
Cc1ccc(NC(=S)NC(=O)C2CCC2)cc1C	inconclusive [activator, partial curve, poor fit]
O=C(COC(=O)c1ccc(O)cc1)Nc1ccc2c(c1)OCCO2	inconclusive [activator, partial curve, poor fit]
COc1cc(/C=C2/C(C)=C(C#N)c3nc(N)c(C#N)c(C)c32)ccc1OCC(=O)O	inactive
Cc1ccc(NC(=O)/C(Cl)=C\c2ccccc2)cc1	inactive
C=CCOC(=O)c1c(C)nc2cc3c(cc2c1C)OCO3	inconclusive [activator, partial curve, poor fit]
Cc1ccc2cc3cc(C(=O)NC4CC4)oc3nc2c1	inconclusive [activator, partial curve, poor fit]
O=C(N/N=C(\c1ccccc1)c1ccccn1)c1cccc([N+](=O)[O-])c1	inconclusive [activator, partial curve, poor fit]
CCN(CC)CCCn1c(=S)[nH]c2cc(Cl)ccc2c1=O	inconclusive [activator, full curve, poor fit]
O=Cc1cn(CC(=O)N2CCCCC2)c2ccccc12	inactive
Cc1cccc(CCN=c2c([N+](=O)[O-])nn(-c3ccccc3)n2O)c1	inconclusive [activator, partial curve, poor fit]
